In PubChem BioAssay AID624417 (National Center for Advancing Translational Sciences (NCATS), 2012):
Several values for one entry are separate records, joined by “and”; a condition that tells them apart may be missing. Equal values may be shown once. The campaign covered roughly 410,000 compounds. About 6,400 (1.6%) were called active. This list was built around the results that the source calls inconclusive (neither active nor inactive); the mix of calls is not that of the screen. The call rests on the fitted dose curve; in most records, active means well fitted inhibition curve with a large enough effect; inconclusive means small, poorly fitted or top-dose-only effect; inactive means no such curve, though single readings can be large or run the other way. Potencies beside an inconclusive call are fits to weak or partial responses and may not hold up.

The compounds below were run against Glucagon-like peptide 1 receptor (Homo sapiens) (UniProt P43220) (assay: qHTS of GLP-1 Receptor Inverse Agonists (Inhibition Mode)). Conditions: HEK293 GLP-1R CRE-luciferase, luminescence, 24 h, GLP-1R form is constitutively active; activity change, negative = inhibition: at 38.3 µM (top of the series) unless noted.
In short: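 Luminescence readout: a drop in cAMP-driven luciferase signal flags inverse agonism at a constitutively active GLP-1R stably expressed in HEK293. Compound exposure lasted 24 hr at 37 deg C, 5% CO2.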
Further: nearly all actives have a fitted effect of over 55% in size.
On the % scale 0 is the no-effect control and ±100 the full control effect; potency means the concentration at half of the fitted maximal effect; tags describe the fitted curve by direction and shape.

Chain of UniProt P43220 (P43220 whole entry, looked up): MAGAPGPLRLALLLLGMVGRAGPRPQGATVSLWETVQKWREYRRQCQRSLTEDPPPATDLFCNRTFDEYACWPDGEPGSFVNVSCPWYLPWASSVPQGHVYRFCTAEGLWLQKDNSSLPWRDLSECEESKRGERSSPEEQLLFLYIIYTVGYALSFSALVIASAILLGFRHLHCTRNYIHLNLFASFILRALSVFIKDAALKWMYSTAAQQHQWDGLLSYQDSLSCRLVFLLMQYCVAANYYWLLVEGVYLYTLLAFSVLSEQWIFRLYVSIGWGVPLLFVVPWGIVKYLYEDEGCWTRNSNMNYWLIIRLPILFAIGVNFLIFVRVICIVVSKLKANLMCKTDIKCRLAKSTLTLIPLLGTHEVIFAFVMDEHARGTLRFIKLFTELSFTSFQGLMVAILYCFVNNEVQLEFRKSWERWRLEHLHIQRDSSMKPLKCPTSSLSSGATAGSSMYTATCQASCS

Row | SMILES | activity change, negative = inhibition | Potency
1 | COc1cccc(C(=O)Cn2c(N3CCOCC3)nc3c2c(=O)n(C)c(=O)n3C)c1 | inactive: 3.26% | –
2 | O=[N+]([O-])c1ccccc1Oc1ccccc1Cl | – | inconclusive: 11.2 µM [inhibitor, partial curve, poor fit]
3 | O=C(c1ccccc1)N(Cc1nc2ccccc2c(=O)[nH]1)C1CCCC1 | – | inconclusive: 7.08 µM [inhibitor, partial curve, poor fit]
4 | CCOc1ccccc1NC(=O)c1c(NCc2cccs2)sc2c1CCC(C)C2 (configuration not stated) | inactive: -24.9% | –
5 | O=C(CSc1nc(-c2cccc(F)c2)[nH]c1-c1ccccc1)Nc1ccc2c(c1)OCCO2 | – | inconclusive: 8.91 µM [inhibitor, partial curve, poor fit]
6 | Cc1ccc(NC(=O)Nc2nnc(-c3ccncc3)s2)cc1C | – | inconclusive: 11.2 µM [inhibitor, single point]
7 | Cc1ccc(S(=O)(=O)Nc2ccccc2C(O)c2ccccc2)cc1 (configuration not stated) | inconclusive: -81.1% [inhibitor] | –
8 | COc1cc(C(=O)N(CCc2ccccc2)C2CC3CCC(C2)N3C)cc(OC)c1OC (configuration not stated) | – | inconclusive: 7.08 µM [inhibitor, partial curve, poor fit]
9 | CSCCC(C(=O)NC(C)(C)C)n1c(-c2ccc(C)cc2)nc2ccccc21 (configuration not stated) | – | inconclusive: 31.6 µM [inhibitor, single point]
10 | Cc1cccc(OCc2ccc(-c3nc(C#N)c(NCc4cccnc4)o3)o2)c1 | – | inconclusive: 28.2 µM [inhibitor, single point]
11 | CC(C)CN1C(=S)SC(C)(C)C1n1oc(=O)n(-c2ccccc2)c1=O (configuration not stated) | – | inconclusive: 10 µM [inhibitor, partial curve, poor fit]
12 | CCN(C(=O)c1cc2c(C)nc3ccccc3c2o1)c1cc(Cl)ccc1OC | – | inconclusive: 28.2 µM [inhibitor, single point]
13 | Cc1cc(N/N=C/c2ccccc2O)nc(N2CCOCC2)n1 | – | inconclusive: 28.2 µM [inhibitor, single point]
14 | CC1CN(S(=O)(=O)c2ccc(NC(=O)c3cc(-c4ccccc4O)n[nH]3)cc2)CC(C)O1 (configuration not stated) | – | inconclusive: 25.1 µM [inhibitor, partial curve, poor fit]
15 | CCN(CC(=O)Nc1ccccc1OC)C(=O)c1ccc2[nH]c3c(c2c1)CC(C)CC3 (configuration not stated) | – | inconclusive: 15.8 µM [inhibitor, single point]
16 | CCN1CCS/C1=C/C=C/C1=[N+](CC)CCS1 | – | inconclusive: 1.41 µM [inhibitor, full curve, poor fit]
17 | Clc1ccc(OCCn2cnc3ccccc32)cc1 | – | inconclusive: 11.2 µM [inhibitor, partial curve, poor fit]
18 | COCCN1C2=C(C(=O)CC(C)(C)C2)C(c2ccc(OC)c(OC)c2)C2=C1CC(C)(C)CC2=O | inactive: 4.46% | –
19 | Fc1cccc(Cn2cc(C(=S)N3CCOCC3)c3ccccc32)c1 | – | inconclusive: 28.2 µM [inhibitor, single point]
20 | Cc1cc(C)n(-c2nc3ccccc3c(=O)n2OCc2ccc(F)cc2)n1 | – | inconclusive: 6.31 µM [inhibitor, partial curve, poor fit]
21 | CN1CCN(CCC(=O)Nc2ccc3c(c2)OCO3)CC1 | inactive: 0.447% | –

Row | SMILES | activity change, negative = inhibition | Potency
22 | CC(C)(C)OC(=O)NCCCC[C@H](NC(=O)c1[nH]cnc1C(=O)N[C@@H](Cc1ccccc1)C(=O)OC(C)(C)C)C(=O)OC(C)(C)C | – | inconclusive: 10 µM [inhibitor, partial curve, poor fit]
23 | COC(=O)c1cccc(NC(=O)NC(=O)c2ccccc2Cl)c1 | – | inconclusive: 1 µM [inhibitor, full curve]
24 | CC(C)CN(CC(C)C)S(=O)(=O)c1ccc(C(=O)Nc2sc3c(c2C(N)=O)CC(C)(C)NC3(C)C)cc1 | – | inconclusive: 10 µM [inhibitor, single point]
25 | CN(C)/C=C1\SC(=S)N(c2ccc(Br)cc2)C1=O | inactive: -20.8% | –
26 | Cc1ccc(NS(=O)(=O)c2ccc(NC(=O)c3cccc(NC(=O)C(C)C)c3)cc2)cc1 | – | inconclusive: 8.91 µM [inhibitor, partial curve, poor fit]
27 | COc1ccccc1N1CCN(C(c2ccc(Cl)cc2)c2nnnn2C(C)(C)C)CC1 (configuration not stated) | – | inconclusive: 22.4 µM [inhibitor, single point]
28 | Cc1c(Cl)cccc1NC(=O)Cn1cc(C(=O)c2cccs2)c2ccccc21 | – | inconclusive: 2.51 µM [inhibitor, full curve]
29 | Nc1sc(Cc2ccccc2)cc1C(=O)c1c(-c2ccccc2)[nH]c2ccccc12 | – | active: 5.62 µM
30 | O=C(CCC(=O)N1CCOc2ccc(Cl)cc21)NCCN1CCOCC1 | inactive: 1.36% | –
31 | O=c1c(Cl)c(Cl)cnn1-c1ccccc1 | – | inconclusive: 28.2 µM [inhibitor, single point]
32 | O=C(Nc1cccc(O)c1)c1noc2c1CCc1ccccc1-2 | – | inconclusive: 10 µM [inhibitor, single point] and inconclusive: 31.6 µM [inhibitor, single point]
33 | CCN(CC)C(=O)CSc1nc2ncc(Br)cc2[nH]1 | inactive: 12.7% | –
34 | O=C(c1cnn2c(C(F)F)cc(-c3ccccc3)nc12)N1CCCc2ccccc21 | – | inconclusive: 3.16 µM [inhibitor, full curve, poor fit]
35 | Cc1ccc(-c2nc(CS(=O)CC(=O)N3CCN(c4cccc(Cl)c4)CC3)c(C)o2)cc1 (configuration not stated) | inactive: -10.3% | –
36 | Cc1cccc(N2CCN(C(=O)C3CCC(=O)N(Cc4ccccc4F)C3)CC2)c1C (configuration not stated) | – | inconclusive: 10 µM [inhibitor, partial curve, poor fit]
37 | COc1ccc(NC(=O)CN(C)CC(=O)Nc2cccc(F)c2)cc1Cl | – | active: 10 µM
38 | Cc1[nH]nc(N=CC2=C(O)CC(C)(C)CC2=O)c1-c1ccc(Cl)cc1 | – | inconclusive: 1.12 µM [inhibitor, full curve, poor fit]
39 | CCCOc1cccc(C2c3c(oc4ccccc4c3=O)C(=O)N2c2nncs2)c1 (configuration not stated) | inactive: 6.48% | –
40 | O=C(NNc1ccc(-c2csnn2)cc1)c1cc(Cl)cc(Cl)c1 | – | inconclusive: 7.08 µM [inhibitor, partial curve, poor fit]
41 | COc1ccccc1Cn1c(C(C)C)nc2ccccc21 | – | inconclusive: 11.2 µM [inhibitor, partial curve, poor fit]
42 | O=C(NCc1cccc(Cl)c1)c1ccc(S(=O)(=O)Nc2cccc(C(F)(F)F)c2)cc1 | – | inconclusive: 2.24 µM [inhibitor, partial curve, poor fit]

Row | SMILES | activity change, negative = inhibition | Potency
43 | Cc1ccc2cccc(NC(=O)COc3ccccc3Cl)c2n1 | inactive: 3.1% | –
44 | COc1ccccc1Cc1c(-c2cccc(Cl)c2)nc2ccc(Br)cn12 | – | inconclusive: 11.2 µM [inhibitor, single point]
45 | COc1ccc(NC(=O)c2cc(-c3cc(Cl)ccc3OC)n[nH]2)cc1OC | – | inconclusive: 0.891 µM [inhibitor, full curve, poor fit]
46 | CC(=O)N1CCc2c(sc3c2c(=O)n(-c2ccc(C)cc2)c(=O)n3Cc2c(F)cccc2Cl)C1 | inactive: -4.42% | –
47 | COC(=O)c1c(NC(=O)Cc2coc3cc(C)ccc23)sc2c1CCCC2 | inactive: 4.5% | –
48 | Cc1ccc2nc(SCC(=O)Nc3ccc(F)cc3F)[nH]c2c1 | – | inconclusive: 11.2 µM [inhibitor, partial curve]
49 | CCc1ccc(NC(=O)c2cnn(-c3ccccc3)c2C)cc1 | – | inconclusive: 6.31 µM [inhibitor, partial curve, poor fit]
50 | COc1ccc(-c2cc(C)no2)cc1S(=O)(=O)NCc1cccs1 | – | inconclusive: 5.62 µM [inhibitor, full curve, poor fit]
51 | CCCCCCC(=O)c1c(C)[nH]c(C(=O)OCC)c1C | – | inconclusive: 28.2 µM [inhibitor, single point]
52 | COc1cc(CNC(=O)C2CCCCN2S(=O)(=O)c2ccc(F)cc2)cc(OC)c1OC (configuration not stated) | inactive: -11.9% | –
53 | O=S(=O)(c1ccc2ccccc2c1)N1CCN(C(=S)Nc2ccccc2F)CC1 | – | inconclusive: 31.6 µM [inhibitor, partial curve, poor fit]
54 | C=C1C(=O)[C@@]23[C@H](O)C[C@@H]4C(C)(C)CC[C@H](O)[C@@]4(C)[C@@H]2CC[C@@H]1[C@H]3O | – | inconclusive: 5.62 µM [inhibitor, partial curve, poor fit]
55 | O=S(=O)(c1ccc(Cl)c(NC(=S)N/N=C/c2c(F)cccc2F)c1)N1CCOCC1 | – | active: 2.51 µM
56 | O=C(Nc1ncccn1)c1ccc(Cl)c([N+](=O)[O-])c1 | – | inconclusive: 31.6 µM [inhibitor, single point]
57 | O=C(Cn1cc(/C=N/NC(=O)c2cccc3ccccc23)c2ccccc21)Nc1ccc(F)cc1 | – | active: 1.58 µM
58 | CCO[C@@H]1OC(C(=O)Nc2ccccc2)=C[C@H](c2ccccc2)[C@H]1CCCO | – | inconclusive: 28.2 µM [inhibitor, single point]
59 | O=C(NC(=O)N1CCN(C(c2ccccc2)c2ccccc2)CC1)c1ccccc1 | – | inconclusive: 1.78 µM [inhibitor, full curve, poor fit]
60 | Cc1ccc(NC(=O)c2ccc(N3CCOCC3)c([N+](=O)[O-])c2)cc1S(=O)(=O)N1CCOCC1 | – | inconclusive: 28.2 µM [inhibitor, single point]
61 | O=C(NCCc1ccccn1)/C(=C/c1ccco1)NC(=O)c1ccccc1 | – | inconclusive: 28.2 µM [inhibitor, single point]
62 | CCc1nc2ccc(C(=O)NCCCn3ccnc3)cn2c1N(CC)Cc1cccc(Br)c1 | – | inconclusive: 10 µM [inhibitor, single point]
